Out of some 48,000 compounds screened, about 550 (1.1%) were called active. Not shown: some 4% with an inconclusive outcome. Rule as the data show it: active = potency below about 15 µM; inconclusive = mostly about 16 µM to 33 µM; inactive = weaker than that. Some of the results follow.
What follows are compounds tested against Lysosomal acid glucosylceramidase (Homo sapiens) (UniProt P04062) (assay: Glucocerebrosidase). Settings: purified enzyme, resorufin glucoside fluorescence (screen aimed at inhibitors), 20 min.
Source text: NCGC Assay Overview: Beta-glucocerebrosidase catalyzes the hydrolysis of beta-glucocerebroside to glucose and ceramide. The inherited deficiency of beta-glucocerebrosidase results in Gaucher disease, which is characterized by a wide variety of symptoms including hepatosplenomegaly, anemia, thrombocytopenia, bony lesions and bone marrow infiltration with characteristic storage cells, known as Gaucher cells. There are also forms of the disorder affecting the central nervous system. Patients with the same genotypes can manifest with diverse clinical presentations and it is believed that improper folding and trafficking of beta-glucocerbrosidase may contribute to the phenotypes observed. Low molecular weight molecules, acting as chaperones, may potentially restore trafficking of misfolded beta-glucocerebrosidase from the endoplasmic reticulum to the lysosomes, thereby enhancing functional lysosomal beta-glucocerebrosidase activity. Using normal beta-glucocerebrosidase, an assay was developed to screen for small molecule inhibitors that could potentially act as molecular chaperones on the mutant forms [developed with NIH investigator Dr. Ellen Sidransky's laboratory]. Two pro-fluorescent substrates were chosen for two screens against a small molecule library. One beta-glucocerebrosidase assay used Resorufin beta-D-Glucopyranoside (Marker Gene Technology Inc.), generating a red fluorescent product. The second assay used Fluorescein di-beta-D-Glucopyranoside, generating a blue fluorescent product. […] The IC50 values of Conduritol B Epoxide, a known glucocerebrosidase inhibitor, were determined to be 87.5 uM and 117 uM, respectively. The use of two difference pro-fluorescent substrates in the screens helped to eliminate false positives. All compounds were screened in a titration series resulting in AC50s (e.g., IC50s or EC50s).
NCGC Assay Protocol Summary: Both enzyme and substrate were diluted in buffer composed of 50mM citric acid/KH2PO4, 10mM sodium taurocholate and 0.01% tween-20 at pH 5.9. The final concentration of the enzyme was 0.2 nM in both assays. The compound library was titrated in 7 to 15 concentrations for the primary screens with a final concentration ranging from 0.6 nM to 50 uM. This particular assay protocol is for the "red" substrate, and it was performed in 1536-well plate format as follows: Red fluorescence substrate assay: 2 uL enzyme 23 nL compound 1 uL substrate (final concentration of 30 uM) Incubate at room temperature (RT) for 20 minutes Read the plate in Viewlux plate reader (Ex=548(7) and Em=600(10)).
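Also: the screen sought inhibitors.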
Potency is read from the fitted curve at half-maximal effect.

Sequence of UniProt P04062 (P04062 whole entry, looked up): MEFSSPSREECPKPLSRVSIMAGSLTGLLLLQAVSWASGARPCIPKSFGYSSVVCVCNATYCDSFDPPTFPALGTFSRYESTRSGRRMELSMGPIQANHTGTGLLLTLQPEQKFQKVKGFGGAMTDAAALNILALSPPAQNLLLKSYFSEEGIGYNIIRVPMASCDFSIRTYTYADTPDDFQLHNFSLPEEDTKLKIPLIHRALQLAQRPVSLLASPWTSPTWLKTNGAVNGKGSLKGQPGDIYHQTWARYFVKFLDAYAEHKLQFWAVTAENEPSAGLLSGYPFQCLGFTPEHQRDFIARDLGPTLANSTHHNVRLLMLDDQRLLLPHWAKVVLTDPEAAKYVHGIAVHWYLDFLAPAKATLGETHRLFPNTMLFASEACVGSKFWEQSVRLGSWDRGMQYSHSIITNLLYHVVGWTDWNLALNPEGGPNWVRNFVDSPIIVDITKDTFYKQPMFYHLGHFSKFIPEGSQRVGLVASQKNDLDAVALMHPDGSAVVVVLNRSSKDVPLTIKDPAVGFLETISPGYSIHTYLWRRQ

Potency, inactive:
CCOc1ccc(NC(=O)CN2CCN(CC(=O)c3ccc(OC)c(OC)c3)CC2)cc1 > 76.9 µM
CCCn1nc(C(=O)Nc2cc(C(=O)OC)ccc2C)c2ccccc2c1=O > 76.9 µM
Cc1ccc(S(=O)(=O)N2C(=O)CCC2C(=O)Nc2ccc3c(c2)OCCO3)cc1 (configuration not stated) > 76.9 µM
Cc1ccc(NC(=O)Cc2nc(CSc3nnc(-c4ccc5c(c4)OCO5)o3)cs2)cc1 > 76.9 µM
COc1ccc(-n2c(O)c(C=NC3CC3)c(=O)[nH]c2=O)cc1 > 76.9 µM
Cc1cc(=O)oc(C)c1C(=O)O > 76.9 µM
CCCCn1c(=N)n(CC(=O)C(C)(C)C)c2ccccc21 > 76.9 µM
O=c1c(O)c(-c2ccc3c(c2)OCO3)oc2ccccc12 > 76.9 µM
C=CCn1c(SCn2nnc3ccccc3c2=O)nnc1-c1ccc(Br)cc1 > 76.9 µM
CNc1nc2c(c(=O)[nH]c(=O)n2C)n1CCOC > 76.9 µM
O=C(CSc1nc(Nc2ccccc2)nc(N2CCOCC2)n1)N1CCc2ccccc21 > 76.9 µM
CCN(CC)S(=O)(=O)c1cccc(C(=O)Nc2ccccc2C(=O)N2CCOCC2)c1 > 76.9 µM
Cn1c(=O)c2c(nc(NC(Cc3ccccc3)C(=O)O)n2Cc2ccccc2)n(C)c1=O (configuration not stated) > 76.9 µM
COc1cc(C(=O)N2CCN(C(=O)C3CC3)CC2)cc(OC)c1OC > 76.9 µM
CC1CN=C(c2cccn2Cc2ccc(F)cc2Cl)O1 (configuration not stated) > 76.9 µM
COc1ccc(NC2CC(=O)NC2=O)cc1 (configuration not stated) > 76.9 µM
COc1cc(NC(=O)c2csc3c2CCCC3)ncn1 > 76.9 µM
Cc1cc(=O)[nH]c(SCc2nc3ccccc3s2)n1 > 76.9 µM
COc1ccc2nc(NS(=O)(=O)c3ccc(NC(C)=O)cc3)sc2c1 > 76.9 µM
O=C1CN(C(=O)c2ccccn2)c2ccccc2N1 > 76.9 µM
CCOc1ccccc1Nc1nnc(SCC(=O)Nc2cc(C)on2)s1
O=C(NCc1ccccc1F)C1CCCN1C(=O)NCc1ccccc1 (configuration not stated) > 76.9 µM
O=C(OCc1nnc(-c2ccccc2)o1)c1ccc2c(c1)OCO2 > 76.9 µM
CCOc1ccc(-c2nnc3sc(COc4ccc(Cl)cc4)nn23)cc1 > 76.9 µM
CCOC(=O)CN(C(=O)CSc1nnc(C)n1-c1ccccc1)c1ccccc1 > 76.9 µM
O=C(CSc1nnc(-c2ccco2)o1)c1ccccc1 > 76.9 µM
Cc1ccc(C(=O)c2cc(C)sc2NC(=O)CN2CCN(C(=O)c3ccco3)CC2)cc1 > 76.9 µM
CC1CCCN(S(=O)(=O)c2ccc3c(c2)CCN3C(=O)C2CCC2)C1 (configuration not stated) > 76.9 µM
O=C(OCC(=O)N1CCCc2ccccc21)c1ccc(Br)o1 > 76.9 µM
CCCS(=O)(=O)N1CCCC(C(=O)NCCCOC(C)C)C1 (configuration not stated) > 76.9 µM
CC(C)Sc1nc2c(c(=O)n(C)c(=O)n2C)n1C > 76.9 µM
Cc1[nH]nc2c1C1(CCN(C(=O)c3ccccc3)CC1)C(C#N)=C(N)O2 > 76.9 µM
N#CCC(=O)Nc1ccccc1C(=O)O > 76.9 µM
O=S(=O)(c1ccc(OCC(O)CN2CCc3ccccc3C2)cc1)N1CCOCC1 (configuration not stated) > 76.9 µM
C=CCOC(=O)C1=C(C)Nc2nnnn2C1c1cccc(OC)c1OC (configuration not stated) > 76.9 µM
CC1(C)Cc2nc(-c3ccccc3)n3cnnc3c2CO1 > 76.9 µM
COC(=O)CCC(=O)Nc1cccc(Br)c1 > 76.9 µM
O=C(CSc1nc(-c2ccccc2)cc(=O)[nH]1)Nc1ccccn1 > 76.9 µM
CCc1ccccc1N(CC(=O)NCc1ccco1)C(=O)c1snc(C(N)=O)c1N > 76.9 µM
COc1ccc(NC(=O)c2ccco2)c(OC)c1 > 76.9 µM
O=C(CN1C(=O)COc2ccccc21)NCCCN1CCN(Cc2ccccc2)CC1 > 76.9 µM
COCC(C)n1c(C)cc(C(=O)COC(=O)c2ccc(N3CCCC3=O)cc2)c1C (configuration not stated) > 76.9 µM
CCN(CCCn1c(SCC#N)nc2ccccc2c1=O)c1ccccc1 > 76.9 µM
CCCCNC(=O)C1c2cc(OC)c(OC)cc2C(=O)N(C)C1c1ccc(OC)cc1 (configuration not stated) > 76.9 µM
Cc1ccc(C2Nc3ccccc3C(=O)N2Cc2ccco2)cc1 (configuration not stated) > 76.9 µM
CCOC(=O)N1CCN(c2nc(C(F)(F)F)nc3c(C)cc(C)cc23)CC1
Cc1ccc(OCC(=O)Nc2cccc(C)n2)c(C)c1 > 76.9 µM
CC1(C)OC(=O)C(=CNCC(=O)NCC(=O)O)C(=O)O1 > 76.9 µM
CC1CCCCN1C(=O)CN1C(=O)CN(C)C(=O)c2ccccc21 (configuration not stated) > 76.9 µM
Cn1c(=O)c2c(nc(CN3CCN(C(=O)c4ccco4)CC3)n2Cc2cccc(Cl)c2)n(C)c1=O > 76.9 µM
Cc1ccc(OCCN2C(=O)CSC2=O)cc1 > 76.9 µM
O=c1[nH]c(CSc2nnc(-c3ccco3)n2-c2ccccc2)nc2sc3c(c12)CCC3 > 76.9 µM
CCn1c(=O)n(CC)c2cc(S(=O)(=O)Nc3ccccc3C)c(C)cc21 > 76.9 µM
COCCCNC(=O)CS(=O)(=O)Cc1nc(-c2cccc(OC)c2)oc1C > 76.9 µM
COc1ccc2cc(C(c3nnnn3CCc3ccccc3)N3CCCC(C)C3)c(=O)[nH]c2c1 (configuration not stated) > 76.9 µM
Cc1cc(C(=O)CSc2nnc(-c3cccs3)n2Cc2ccccc2)c(C)n1C > 76.9 µM
COCCCn1c(SCC(=O)N2CCCC(C)C2)nnc1-c1ccco1 (configuration not stated) > 76.9 µM
O=C(O)CCc1nc(-c2ccccc2Cl)no1 > 76.9 µM
CN(C)c1ccc(CNn2cnnc2SCc2ccccc2F)cc1 > 76.9 µM
COCC(=O)Nc1sc2c(c1C(=O)OC)CCCC2 > 76.9 µM
COc1ccc(C(=O)CSc2nnc(-c3ccoc3C)n2CC2CCCO2)cc1 (configuration not stated) > 76.9 µM
c1ccc(Cc2ccc(OCCn3cncn3)cc2)cc1 > 76.9 µM
CC(=O)Nc1cc(NC(C)=O)c2nc(N)sc2c1 > 76.9 µM
C=CCn1c(N)cc(=O)nc1SCC(=O)N1CCN(c2ccc(F)cc2)CC1 > 76.9 µM
CCOc1ccc(Br)cc1S(=O)(=O)N1CC(C)OC(C)C1 (configuration not stated) > 76.9 µM
CCOC(=O)N1CCN(C(=O)c2n[nH]c(=O)c3ccccc23)CC1 > 76.9 µM
CC(C)COP(=O)(c1ccc(N(C)C)cc1)C(O)c1ccccn1 (configuration not stated) > 76.9 µM
CC(=O)OCC(=O)Nc1ccc(Cl)cc1Cl > 76.9 µM
CCNc1nc(N2CCCCC2)nc(-n2nnc(C(=O)OCC)c2C)n1
COc1ccc(C2CC(=O)C3=C(C2)Nc2ncnn2C3c2ccccc2)cc1 (configuration not stated) > 76.9 µM
O=C(Nc1ccc2c(c1)OCCO2)C1CCN(S(=O)(=O)c2cccc3nsnc23)CC1 > 76.9 µM
CCN(CC)CCn1c(OC)cc(=O)[nH]c1=O > 76.9 µM
COC(=O)c1sc(NC(=O)c2ccco2)nc1C > 76.9 µM
Cc1sc2nc(-c3ccco3)oc(=O)c2c1C > 76.9 µM
O=C(COn1nnc2ccc(C(F)(F)F)cc21)Nc1nnc(-c2ccccc2)o1 > 76.9 µM
COc1cccc(-n2nnnc2SCC(=O)NCc2ccc3c(c2)OCO3)c1 > 76.9 µM
Oc1ccc(-c2cccc(-c3ccc(O)cc3)n2)cc1 > 76.9 µM
CCOc1ccc(C2C(C#N)=C(N)Oc3cc(C)n(CCN(C)C)c(=O)c32)cc1OCC (configuration not stated) > 76.9 µM
O=S(=O)(c1ccc(OCC(O)CN2CCN(c3ccccc3Cl)CC2)cc1)N1CCOCC1 (configuration not stated) > 76.9 µM
COc1ccc(C(=O)O)cc1F > 76.9 µM
COCCn1c(=NC(=O)CSCC(=O)Nc2cc(C)on2)sc2cc(C(=O)OC)ccc21 > 76.9 µM
CC(C)(C)Nc1nc(SCc2ccccc2)nc(N2CCOCC2)n1 > 76.9 µM
O=C(CCCn1c(=S)[nH]c2ccccc2c1=O)NC1CCCC1
Cc1ccc(-c2nc(NC(=O)CSc3nnnn3-c3ccccc3)ns2)cc1 > 76.9 µM
CC(C)CNC(=O)c1cccc(NC(=O)C2CCCO2)c1 (configuration not stated) > 76.9 µM
COc1ccc(-c2nc(SCC(=O)NCc3ccco3)c(-c3ccccc3)[nH]2)cc1OC > 76.9 µM
CC(=O)C1=C(C)NC(=O)NC1c1cccc(O)c1 (configuration not stated) > 76.9 µM
CC(=O)C(Sc1nc(-c2ccco2)nc2c1c(=O)n(C)c(=O)n2C)C(=O)N(C)C (configuration not stated) > 76.9 µM
Cc1ccccc1C(=O)c1cccn1CC(=O)N1CCCCCC1 > 76.9 µM
c1ccc2nc3c(nc2c1)CCc1nonc1-3 > 76.9 µM
CCCC(C)C(=O)Nc1ccc(Cl)cn1 (configuration not stated) > 76.9 µM
CCOc1ccccc1C(=O)NC(C(=O)Nc1ccccc1N1CCOCC1)C(C)C (configuration not stated) > 76.9 µM

Reference: PubChem BioAssay AID360 (National Center for Advancing Translational Sciences (NCATS), 2006)
